Assay results as given in patent publication US20230331822A1 (published 2023).

Columns and labels:
[1] = target: T1, SARS-CoV Spike protein, full length, C-terminally fused with EGFP (SARS-CoV); assay: flow cytometry, HEK293 cells expressing full-length Spike-EGFP, anti-hIg-PE
T1 construct: whole, on cells

[2] = target: T2, MERS-CoV Spike protein, full length, C-terminally fused with EGFP (MERS-CoV); assay: as above
T2 construct: whole, on cells

B1: COV2-324-16-Fc (Fc fusion)
chain: QLQLVESGGDLVQPGESLRLSCVASGFTFDDYSIGWFRQAPGKEREGVSCFSSLDGSTSYADSVRGRFTISRENAKNAVYLEMNSLKPEDTAVYYCAATRGSSWYWYRPSEYDYWGQGTQVTVSS[human IgG1 Fc with changes not listed]
binding result [1]: no binding
binding result [2]: no binding
